The source of these data is patent US7208293.

Where a chain is given by its changes, count along the chain named.

T1: human neutrophil elastase (human, UniProt P08246 30-247)
T1 construct: also called HNE; HNE beads
T1 sequence (looked up): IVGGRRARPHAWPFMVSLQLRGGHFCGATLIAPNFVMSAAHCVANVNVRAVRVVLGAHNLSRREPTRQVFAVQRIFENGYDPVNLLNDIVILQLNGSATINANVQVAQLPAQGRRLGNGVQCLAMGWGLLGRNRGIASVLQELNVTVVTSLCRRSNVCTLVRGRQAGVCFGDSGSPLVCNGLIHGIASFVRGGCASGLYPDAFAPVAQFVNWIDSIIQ

B1: EpiNE7.21 display phage (designed binder)
chain: RPDFCLEPPYTGPCVAMFPRYFYNAKAGLCQTFHYGGCWGQGNNFKSAEDCMRTCGGAGAAETVESCLAKPHTENSFTNVWKDDKTLDRYANYEGCLWNATGVVVCTGDETQCYGTWVPIGLAIPENEGGGSEGGGSEGGGSEGGGTKPPEYGDTPIPGYTYINPLDGTYPPGTEQNPANPNPSLEESQPLNTFMFQNNRFRNRQGALTVYTGTVTQGTDPVKTYYQYTPVSSKAMYDAYWNGKFRDCAFHSGFNEDPFVCEYQGQSSDLPQPPVNAGGGSGGGSGGGSEGGGSEGGGSEGGGSEGGGSGGGSGSGDFDYEKMANANKGAMTENADENALQSDAKGKLDSVATDYGAAIDGFIGDVSGLANGNGATGDFAGSNSQMAQVGDGDNSPLMNNFRQYLPSLPQSVECRPFVFSAGKPYEFSIDCDKINLFRGVFAFLLYVATFMYVFSTFANILRNKES
notes: gene III display, KLMUT library
B2: EpiNE7.22 display phage (designed binder)
chain: B1 chain with Q41E
notes: as for B1
B3: EpiNE7.30 display phage (designed binder)
chain: B1 chain with H34K, G40A, Q41E
notes: gene III display, KLMUT library; also called EpiNE7.34; EpiNE7.35
B4: EpiNE7.39 display phage (designed binder)
chain: B1 chain with H34M, Q41D
notes: as for B1
B5: EpiNE7.32 display phage (designed binder)
chain: B1 chain with H34G, Q41E
notes: as for B1
B6: EpiNE7.33 display phage (designed binder)
chain: B1 chain with H34E, G40A, Q41N
notes: as for B1
B7: EpiNE7.28 display phage (designed binder)
chain: B1 chain with H34T, W39L, Q41H
notes: as for B1
B8: EpiNE7.40 display phage (designed binder)
chain: B1 chain with H34T, W39H, Q41N
notes: as for B1
B9: EpiNE7.37 display phage (designed binder)
chain: B1 chain with H34M, W39Q, Q41K
notes: as for B1
B10: EpiNE7.25 display phage (designed binder)
chain: B1 chain with H34P, G40A, Q41K, S47L
notes: as for B1
B11: EpiNE7.24 display phage (designed binder)
chain: B1 chain with H34K, W39H, Q41N
notes: as for B1
B12: EpiNE7.29 display phage (designed binder)
chain: B1 chain with H34T, W39L, Q41Y
notes: as for B1
B13: EpiNE7.26 display phage (designed binder)
chain: B1 chain with H34K, Q41H
notes: as for B1
B14: EpiNE7.27 display phage (designed binder)
chain: B1 chain with H34N, Q41K
notes: as for B1
B15: EpiNE7.38 display phage (designed binder)
chain: B1 chain with H34Y, G40A, Q41K

The target in this experiment is T1, human neutrophil elastase. The experiment can be described thus: clone from the pH 2.0 eluate, third round of the second fractionation of the KLMUT library on HNE beads.
In the case of B1, the binding result is “binds”.

Consider B2, for which the binding result is “binds”.

Regarding B3, the binding result is “binds”.

In the case of B4, the binding result is listed as “binds”.

Turning to B5, the binding result is recorded as “binds”.

On to B6, for which the binding result is “binds”.

Take B7: the binding result is recorded as “binds”.

With B8, the binding result is “binds”.

As for B9, the binding result is on record as “binds”.

Turning to B10, the binding result is reported as “binds”.

As to B11, the binding result was “binds”.

As for B12, the binding result is “binds”.

As for B13, the binding result is on record as “binds”.

For B14, the binding result is reported as “binds”.

As to B15, the binding result is “binds”.
